Results published in the RNAGym collection of RNA variant scans (doi:10.1093/nar/gkz1192).
The source gives no read counts; variants with many changes may rest on few reads.

B1: CPEB3 Ribozyme (parent)
chain: UAACAGGGGGCCACAGCAGAAGCGUUCACGUCGCAGCCCCUGUCAGAUUCUGGUGAAUCUGCGAAUUCUGCUGUAUAUCUC

Variants of: B1
Test: self-cleavage, relative activity (ratio to wild type); higher = more cleavage; in vitro, sequencing
Method in brief: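 Barcoded CPEB3 ribozyme mutants, produced by rounds of error-prone PCR, self-cleaved while being transcribed with T7 RNA polymerase for 5 hours at 37°C and during a subsequent 15 min DNase I step before EDTA was added. Sequencing of template-switched cDNA on Illumina gave cleaved and total reads, and DNA sequencing assigned barcodes to variants. Each variant's relative activity is its cleaved/total read fraction divided by the unmutated ribozyme's fraction, averaged across three batches. A variant needed a minimum of 5 reads.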

| Variant | self-cleavage |
| --- | --- |
| A35G U48C G63A | 1.21 |
| C37U A47G A57G | 0.47 |
| A35U A56G A64G | 0.14 |
| A35U U41A U66C | 0.35 |
| A35U U41C G42U G46U U48C | 0.16 |
| G36A A56G U60C U66C | 0.13 |
| A35U U58C U60A U76C | 0.08 |
| A35U C50A C81U | 0.39 |
| A35U A47G U67C | 0.12 |
| A35U U48C U54A A56U U67A U69A | 0.1 |
| A35U G70A C79U | 0.26 |
| A35U U54C U58A A64U | 0.11 |
| A35G U48C A56U U67C C71U | 0.14 |
| A35G U43A C68U | 1.22 |
| A35G U49C C59A A64G U76C | 0.19 |
| G36A U60A U78C | 0.12 |
| A35U U41C U43C U60A | 0.08 |
| A35U U51A U60C | 0.43 |
| A35U U54C A64U | 0.12 |
| A35U U43C U48C G70A U78C | 0.24 |
| C37G U69C U72A | 0.25 |
| A35U U43C C62U A65C U72A | 0.09 |
| A35U U41C U54C U67C U80C | 0.17 |
| A35U G36A U69C U72A | 0.07 |

| Variant | self-cleavage |
| --- | --- |
| A35G U48C U51A U76C | 1.27 |
| A35U G36U A56U | 0.25 |
| G36A G46U U58A | 0.08 |
| A35G U49C A65G | 0.6 |
| A35G U67A U72C U80A | 1.18 |
| A35U A45G A57G | 0.14 |
| A35U U43C A64G | 0.33 |
| A35U G73U U78C | 1.21 |
| A35G U41C U48C A57G U66C U78C U80A | 1.17 |
| A35U U43C A57G C71G | 0.1 |
| A35G U60A U80C | 1.19 |
| A35U A56U U72A U80C | 0.41 |
| A35U U58C A64G U76C U80A | 0.05 |
| A35U U51C U72C | 0.54 |
| A35G U51A U67G | 1.41 |
| A35G U41C U60C | 1.07 |
| A35U A45G A64U | 0.3 |
| A35U U51A U54C | 0.4 |
| A35U C40G U43C | 0.21 |
| A35G U43C A56G G61A G73A U78A | 0.57 |
| A35U A45U U54C | 0.25 |
| A35G U48C A57G U67C | 0.15 |
| A35U C40U C62U | 0.1 |
| A35G U69A A75G | 1.29 |

| Variant | self-cleavage |
| --- | --- |
| G36C U49C U69G | 0.12 |
| G36C U49C U69C | 0.08 |
| A35U C38U A47G | 0.36 |
| A35U U54C A65U | 0.12 |
| A35U U41C U58C A64U U74A A75G | 0.12 |
| C37G U49C U51C | 0.34 |
| A35G U51G U54C | 1.25 |
| A35G U41G U60A | 0.19 |
| G36U U60C A64C U80A | 0.06 |
| A35U U49C U60C U67C | 0.09 |
| A35G U66C G70A | 0.44 |
| A35U U43A U60C | 0.23 |
| A35G U51C U74C A75G | 1.3 |
| A35G U51A G55A U58C U72C A75U | 1.16 |
| A35U A45U G70A A75G C79U | 0.07 |
| A35U U43C A45G U51A A65U | 0.25 |
| A35U U49C U69C | 0.11 |
| A35U U60C A65G | 0.41 |
| A35G U54C A56U A64G | 1 |
| A35U U48C U69C | 0.41 |
| C37A U60C A65G | 0.14 |
| A35U U41C A56U A77U U78C | 0.34 |
| A35G U58A U72A | 0.48 |
| G36A A65G U80A | 0.14 |

| Variant | self-cleavage |
| --- | --- |
| A35U C37G U60A U72A | 0.11 |
| A35U U41A U58C U69A U72C | 0.06 |
| A35U A47G U66C | 0.33 |
| A35U U51G A65G A77G U78C | 0.11 |
| A35U U43C U48C A57G U74C | 0.61 |
| A35U C71G A75G | 0.07 |
| G36C U43A U58A | 0.08 |
| A35U C40U U43C U49C | 0.07 |
| A35U G42U U43C U69A U80C | 0.12 |
| A35U A47G U60C | 0.09 |
| A35G U41G U51A | 0.24 |
| G36A U49A U72A U76A | 0.11 |
| A35G U76C U80C | 1.29 |
| A35U U41A A77U | 0.35 |
| A35G U58C A65G | 0.59 |
| A35U G36C C38A U51A A56U A65G U67C | 0.07 |
| A35U A45G U60A U72A | 0.14 |
| A35G U41C U43C U60C | 0.17 |
| G36U A47U U60A U72A U80C | 0.13 |
| A35G U43C A45U A56G U58A U76C | 0.1 |
| A35U C37U U43A A47G U72C | 0.09 |
| A35U A56U U60C A77U | 0.1 |
| A35G U54C A65G | 1.16 |
| A35U U54C U66C U69C | 0.33 |

| Variant | self-cleavage |
| --- | --- |
| A35U U43C A56G U60A A75G A77U | 0.07 |
| A35G U49A A57U U60A U72C | 0.6 |
| A35G U72C U74A | 1.28 |
| A35U A47U A56U U60C | 0.1 |
| A35G U49C U60C U74C | 0.32 |
| A35U A45U U51C U66C U72C U80C | 0.05 |
| A35U A45U U60A U78A | 0.38 |
| A35G U58G U60C U67C U72C | 0.31 |
| G36A C39A C40U A56U U74C A77U | 0.07 |
| G36C A47U U54C U78C | 0.05 |
| A35G U43A U58C C62G U78A | 0.92 |
| G36A U43C U66C | 0.08 |
| A35G U41C U60C U72A | 0.53 |
| A35G U60G U72C | 0.78 |
| A35U U58A C59U | 0.13 |
| C37U A56G A65G | 0.18 |
| C37A U48C U54C U72C | 0.1 |
| A35G U54C A57G | 1.11 |
| A35G U54A A65G U78C | 1.23 |
| A35U A64U U67A U69C | 0.1 |
| A35U U49C A64U | 0.15 |
| C37A A57U U74C | 0.11 |
| A35U U43A U51C A77G | 0.39 |
| A35G U51C G73A | 1.41 |

| Variant | self-cleavage |
| --- | --- |
| A35U U49A U60C A65U | 0.11 |
| A35U A45G A65G | 0.4 |
| A35G U51A U72G | 1.25 |
| G36C U43C A47G A56G | 0.18 |
| A35U U41A A45G U51C U58C U60C | 0.07 |
| A35G U48A G73C U76C U80C | 1.29 |
| A35G U58C U60C | 0.45 |
| A35G U43G U54A U58A | 0.15 |
| G36A A56G U60C U80C | 0.11 |
| A35U U58A U80C | 0.18 |
| A35G U66A U72A | 1.14 |
| G36U U43C A77G U78A | 0.12 |
| A35U U41C C59U A77G | 0.24 |
| A35G U48C U78C C81U | 1.3 |
| A35U A47C U49A U78A | 0.06 |
| A35U U43A U67A U69C | 0.25 |
| A35U A57G G61C C79A U80C | 0.11 |
| A35G U41C U54C U67C A75G | 0.29 |
| A35U A45G U48C U58A | 0.08 |
| C37A A56G U66G | 0.1 |
| A35U C37U U41A | 0.15 |
| A35U A45U A56G U69C | 0.11 |
| A35U A45G A56G | 0.4 |
| G36A C39A U41C | 0.16 |

| Variant | self-cleavage |
| --- | --- |
| A35G U41C U80A | 1.29 |
| C37G U48A A65G | 0.47 |
| C37U A45G U74A | 0.81 |
| A35G U54A A57G A77G | 1.28 |
| A35U C50G U69A | 0.17 |
| A35G U51A A64G | 1.21 |
| A35U U41C U43C U76C | 0.19 |
| A35U U41C U80C | 0.54 |
| G36A U60C U72C | 0.1 |
| A35U C38G U51C | 0.17 |
| A35G U51A U60A | 1.23 |
| G36A A47U U67C | 0.1 |
| A35G U43C U54C U60C A65G U66C | 0.24 |
| A35U U43C A56G A65G C71G U78C C81U | 0.11 |
| A35U U41C G46U A64U | 0.11 |
| A35U A47U A77G | 0.38 |
| A35G U51C U60C | 0.24 |
| A35U G36A G55A A57U A77G | 0.12 |
| C37G A47U A57G | 0.05 |
| A35U U43C U49C U69C | 0.21 |
| A35G U41C G61A U67C | 0.38 |
| A35U G36C C40U A75U | 0.15 |
| A35U A47G U48C U60C U72A | 0.11 |
